Out of some 150,000 compounds screened, about 540 (0.36%) showed an effect of 50% or more. Some of the results follow.

These results are taken from ChEMBL document CHEMBL4888484, “Replenishing the malaria drug discovery pipeline: Screening and hit evaluation of the MMV Hit Generation Library 1 (HGL1) against asexual blood stage Plasmodium falciparum ,using a nano luciferase reporter read-out” (2022).

The test relates to Plasmodium falciparum. Nature of the test: Primary screen in NF54 nanoGlo assay, in single point, at 2uM, 72h; a lower Z score goes with more inhibition. Format: functional, Erythrocyte. The settings on record: timepoint 72 hour.
On to `CCCCN1C(=O)CCC(C(=O)Nc2ccc(C)cn2)C1c1ccccc1OC` (stereo unspecified), for which the “% Inhibition” value stood at 0% and the Z score is listed as -0.03.

Take `COc1cc(N[C@H]2CC(=O)N(Cc3cccc(F)c3)C2)ncn1`: the “% Inhibition” value is on record as -10% and the Z score was 1.61.

As to `COC(=O)Nc1ccc(NC(=O)C(C)(C)F)cc1F`, the “% Inhibition” value is reported as -11% and the Z score was 1.39.

Consider `CC[C@@H](COC(=O)Nc1cccc(C)c1)NC(=O)OCC(C)C`, for which the “% Inhibition” value is reported as -7% and the Z score was found to be 0.97.

In the case of `C=C(C)COc1cccc(NC(=O)C(=O)N[C@H]2CCN(C(C)C)C2)c1`, the “% Inhibition” value is recorded as -7% and the Z score came to 1.43.

Take `O=C(Nc1nc(-c2ccccc2)cs1)c1cccc(S(=O)(=O)NCc2ccc3c(c2)OCO3)c1`: the “% Inhibition” value is -8% and the Z score turned out to be 1.57.

As to `COc1ccc(-c2c(N3CCCC3)cn[nH]c2=O)cc1`, the “% Inhibition” value is recorded as -1% and the Z score was determined as 0.1.

`CC(C)=Cc1nc(C[C@H](C)N(C)C(=O)OC(C)(C)C)no1`: the “% Inhibition” value is listed as -5% and the Z score is on record as 0.48.

For `Cc1cc(F)cc(C(=O)OCCNc2ncccn2)c1`, the “% Inhibition” value came out at 31% and the Z score was -3.5.

For `CCC(=O)N1CCc2ccc(OCc3nc(C(=O)N4CCN(C(C)=O)CC4)cs3)cc2[C@@H]1c1ccccc1`, the “% Inhibition” value is given as -3% and the Z score is listed as 0.29.

For the compound `CC(C)(C)c1cc(CN2C[C@H](O)[C@@H](N3CCC(F)(F)CC3)C2)n[nH]1`, the “% Inhibition” value is reported as -6% and the Z score is listed as 0.96.

On to `CC[C@@H](CO)N(Cc1ccc(F)cc1)C(=O)CCC(C)=O`, for which the “% Inhibition” value was -12% and the Z score was found to be 1.67.

For the compound `Cc1cc2nc(-c3ccccc3)cc(C(=O)N3CC[C@H](O)C3)c2cc1C`, the “% Inhibition” value was -9% and the Z score stood at 0.93.

Regarding `Cc1cccc(-c2cn[nH]c2[C@H]2CCCN(C(=O)c3cc(F)ccc3F)C2)c1`, the “% Inhibition” value came out at 2% and the Z score was -0.44.

As for `c1ccc(-c2cc(CC3(NC4CCCCC4)COC3)no2)nc1`, the “% Inhibition” value came out at 18% and the Z score is listed as -2.15.

On to `COCCC[C@H]1CCCN(C(=O)Cc2c[nH]c(=O)[nH]c2=O)C1`, for which the “% Inhibition” value is listed as 3% and the Z score is -0.47.

In the case of `CN1C[C@@H](CNC(=O)Nc2cncc(OCC(F)(F)F)n2)CC1=O`, the “% Inhibition” value is given as -12% and the Z score worked out at 1.64.

As to `c1cn(-c2ccc(CN3CCCC3)cc2)cn1`, the “% Inhibition” value is listed as -11% and the Z score was determined as 1.61.

For `CCn1nc(C)c(-c2cc(-c3ccc(CO)o3)c(C#N)c(N)n2)c1C`, the “% Inhibition” value came to 3% and the Z score is given as -0.39.

Regarding `CCc1nnc(C)cc1C(=O)N1CCC(c2nc3ccccc3s2)CC1`, the “% Inhibition” value is recorded as 15% and the Z score is given as -2.

`CNC(=O)[C@H]1CCN(c2nc(C3CCCCC3)ns2)C1`: the “% Inhibition” value is -16% and the Z score is given as 1.82.

In the case of `Cc1cc(N2CCC[C@@]3(C=Cc4ccccc4O3)C2)n2ncnc2n1`, the “% Inhibition” value is -8% and the Z score is 1.36.

`Cc1c(-c2cnn(C)c2)nc(N)c(C#N)c1[C@H]1CCOC(C)(C)C1`: the “% Inhibition” value is given as -8% and the Z score was 1.41.

Consider `CC(C)NC(=O)N1CC(C(=O)NC(C)c2ccccc2)CCC1c1ccc(F)cc1` (stereo unspecified), for which the “% Inhibition” value was -4% and the Z score is on record as 0.63.

As to `CC(C)(C)c1cc(CNC(=O)c2c[nH]c(=O)c(Cl)c2)[nH]n1`, the “% Inhibition” value was -9% and the Z score was 1.

For `O=C1NC2(CCN(Cc3cccc(F)c3)CC2)N2CCCC[C@@H]12`, the “% Inhibition” value is recorded as -9% and the Z score was determined as 1.73.

Take `Nc1nnnn1CC(=O)N(Cc1ccncc1)C1CCCCC1`: the “% Inhibition” value is recorded as -7% and the Z score was 1.

For `OCCN(Cc1ccccc1OC1CC1)C1CC1`, the “% Inhibition” value is listed as -5% and the Z score is listed as 0.91.

As to `COc1ccc(Cl)cc1C(C)NCC1CCN(S(C)(=O)=O)C1` (stereo unspecified), the “% Inhibition” value is 1% and the Z score is listed as -0.08.

Consider `CN(C)c1ccc(-c2nc(-c3nnn4c3CO[C@H](c3ccccc3Cl)C4)no2)cc1`, for which the “% Inhibition” value is -2% and the Z score was determined as 0.39.

Regarding `c1ccc(CO[C@H]2CCN(c3cc(-n4ccnc4)ncn3)C2)nc1`, the “% Inhibition” value amounted to 0% and the Z score is reported as 0.01.

`CO[C@H]1CN(C)C[C@@H]1NC(=O)c1c[nH]c2c(F)cccc2c1=O`: the “% Inhibition” value is -25% and the Z score came out at 2.23.

Turning to `CN(CC1OCCc2sccc21)C(=O)CCC1CCCO1` (stereo unspecified), the “% Inhibition” value is given as -9% and the Z score stood at 1.06.

In the case of `COc1ccc(CN2C(=O)c3ccccc3C2=O)cc1C(=O)N1CC(C)OC(C)C1` (stereo unspecified), the “% Inhibition” value was -8% and the Z score was determined as 0.98.

Consider `CC1CC(C)CN(C(=O)Cc2csc(NC(=O)c3ccco3)n2)C1` (stereo unspecified), for which the “% Inhibition” value is recorded as -13% and the Z score came out at 1.27.

Turning to `Cc1nc2cc(C(=O)N3CCC[C@@]3(C)C(=O)O)ccc2s1`, the “% Inhibition” value is given as 3% and the Z score is -0.39.

As for `O=C(CNCC1CCC1)Nc1c(Cl)cccc1Cl`, the “% Inhibition” value was -6% and the Z score was 0.74.

On to `C[C@H](N)C1(c2nc(C(C)(C)c3ccc(Cl)cc3)no2)CCOCC1`, for which the “% Inhibition” value was found to be 4% and the Z score was -0.84.

Take `Cc1ccc(NC(=O)CC(=N)NOC(=O)Nc2cccc(C)c2)cc1`: the “% Inhibition” value is given as -1% and the Z score is 0.23.

As to `CCCc1cc(C(=O)OCC)nn1C1CCN(S(=O)(=O)c2ccccc2C)CC1`, the “% Inhibition” value is on record as -14% and the Z score came to 2.44.

As for `Cc1ccc2c(c1)NC(=O)c1cc(S(=O)(=O)N(C)C)c(N3CCCCCC3)cc1O2`, the “% Inhibition” value is 0% and the Z score was -0.02.

Turning to `Cc1nc2c(cc1C(=O)Nc1cccc(Cl)c1)c(=O)[nH]c(=O)n2Cc1ccccc1`, the “% Inhibition” value was -18% and the Z score came to 2.55.

On to `Cc1cccc(C[C@H](C)NC(=O)CCc2cn[nH]c2)n1`, for which the “% Inhibition” value is 1% and the Z score was -0.14.

Regarding `O=C(NCc1cccc(-c2nnc[nH]2)c1)NCC1CC1c1ccccc1` (stereo unspecified), the “% Inhibition” value is listed as -7% and the Z score was 1.22.

Regarding `CC(C)CCNC(=O)Cn1cccc1-c1nc(-c2ccc3c(c2)OCO3)no1`, the “% Inhibition” value is -3% and the Z score is listed as 0.33.

For `CCOc1ccccc1CCCNC(=O)c1cc(C)n2nc(C)cc2n1`, the “% Inhibition” value was 12% and the Z score is given as -1.63.

As to `NC(Cc1ccccc1)=NOC[C@@H]1CNC(=O)C1`, the “% Inhibition” value was -5% and the Z score is listed as 0.93.

`O=C(NCCOCC1CC1)c1c[nH]nc1-c1ccccn1`: the “% Inhibition” value is given as -3% and the Z score stood at 0.59.

With `CCN(C(=O)CCc1c(C)[nH]c(=O)c(C#N)c1C)C1CCCC1`, the “% Inhibition” value was -3% and the Z score is on record as 0.5.

Turning to `CC(C)n1cnc2ccc(-c3noc(-c4ccco4)n3)cc21`, the “% Inhibition” value was -18% and the Z score was determined as 3.1.

For `COCCN1CC2(CCC1=O)CCN(C(=O)c1cnc(C3CC3)nc1)CC2`, the “% Inhibition” value is reported as -17% and the Z score is given as 2.72.

With `Cc1ccc(-c2nn(-c3ccccc3)cc2C(=O)N2CCO[C@@H](CC(=O)O)C2)o1`, the “% Inhibition” value was -7% and the Z score was 0.93.

`Cc1cnc([C@H]2CCN(C(=O)NC(C)C)C2)n1Cc1ccccc1`: the “% Inhibition” value is on record as -4% and the Z score is given as 0.59.

By % Inhibition is commonly meant the drop in the measured response relative to a control, in per cent.
